The list shows a part of the results.

This assay relates to PF3D7_0420300 AP2 domain 1 (GST-tagged). Put plainly: gcPBM binding intensity (ln(normalized median fluorescence intensity)); higher = stronger DNA binding. The method, boiled down:
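In this array assay, P. falciparum DNA-binding domains with a GST tag, expressed in E. coli, were applied for 1 h to primer-extended double-stranded 36-bp intergenic genomic probes and negative controls on an Agilent 4 × 180k array. Bound protein was visualised with Alexa488 anti-GST antibody at 488 nm. Binding intensity is the highest Masliner-normalised natural-log median intensity across replicate spots of either probe orientation.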
For the sequence “TGTATATATTTGTGCACACCAAAGTTTGATTTTATT [CACACA_site1860]”, the “gcPBM binding intensity (ln)” value was 9.74. For the sequence “ATATAAAATCAACAAAAAAAAAAAATATATATATAT [XGTACX_negctrl_site251]”, the “gcPBM binding intensity (ln)” value is 9.08. Consider “TTATATTTTTTAATTACACACAATTCTTATAAATAT [CACACA_site7870]”, for which the “gcPBM binding intensity (ln)” value is 9.35.

For the sequence “TATTATAACTAAAAAAATCACATAAAATACTTTATT [CACACA_negctrl_site2]”, the “gcPBM binding intensity (ln)” value was found to be 9.1. “TTAAATTACTAATGTGCACACATACTAACGTTTAAA [CACACA_site3573]”: the “gcPBM binding intensity (ln)” value is 9.26. Consider “TATCTTATTTTATCTCGTACATAAAATTAAAAAATT [XGTACX_site3636]”, for which the “gcPBM binding intensity (ln)” value was 8.99.

As for “AATATGTATCCATACACACATACATTTTATTTGCAA [CACACA_site874]”, the “gcPBM binding intensity (ln)” value came to 9.5.

For “TTTTATTTATTATTTACACACACGTAGGTGTCCATA [CACACA_site430]”, the “gcPBM binding intensity (ln)” value came to 9.77. As to “TTTTGACATTAATTACTATAGTGTTCTTATAAAATT [TGCATGCA_negctrl_site589]”, the “gcPBM binding intensity (ln)” value turned out to be 9.33. With “CATTTTATTTTAATATGTACTTAAAGAAAAAAAATT [XGTACX_site7670]” the figure was 8.93; with “AATACATAAAAATAAAAATAAAATATAACTAATATG [CACACA_negctrl_site186]”, 9.5. As for “TTATACATATATTTAACACACATTTTATAAAGTGCC [CACACA_site1314]”, the “gcPBM binding intensity (ln)” value was determined as 9.29. As to “AATCGATAAAATGTTGTGCACATATTTTTATATTTA [GTGCAC_site9651]”, the “gcPBM binding intensity (ln)” value is 9.26. On to “AAAACTATAATGAATAGTACATAAAAATGGATATAT [XGTACX_site6056]”, for which the “gcPBM binding intensity (ln)” value stood at 9.52. As for “TAAAAAAAAAAAAAAGTACACACTTATAAAATATTA [CACACA_site872]”, the figure is 9.23. “ATATATTTTTTGAATACACACATATTATATGTAATA [CACACA_site1256]”: the “gcPBM binding intensity (ln)” value turned out to be 9.38. With “ACAAATGAGATTATATGTACACATAACAAATTTACA [XGTACX_site3496]” the figure was 9.41; with “AAATGTAAAATTTTATGTACATATATTTATATAATA [XGTACX_site3737]”, 9.1. With “GTTACACCAACAAACACACACACACCGACACCCAAA [CACACA_site5361]” the figure was 10.1; with “TTTATTTATTTAATTACACACGAACATATAACCATT [CACACA_site7952]”, 9.37; with “ATGTTTTATAAAAGGCGTACACATATATTTAAGTAA [XGTACX_site6231]”, 9.36. For the sequence “TTCATTCTATAAAACACACAAATATTTTTGTATCCC [CACACA_site6458]”, the “gcPBM binding intensity (ln)” value was found to be 9.2. Consider “TTTTGTGATCTTACCACCTTTCATAATATTAATAAA [GTGCAC_negctrl_site360]”, for which the “gcPBM binding intensity (ln)” value turned out to be 9.25.

For “ATAGAACAATTCAGAAGTACATAAAAAGAAAAATTT [XGTACX_site3015]”, the “gcPBM binding intensity (ln)” value is 9.35. For the sequence “TTGGATGATTAAGGGGGACACACGTTTATATATTTA [CACACA_site338]”, the “gcPBM binding intensity (ln)” value was 9.64. Regarding “ATATATTTTAATGATACACACAAGAAATAAAATTAC [CACACA_site5671]”, the “gcPBM binding intensity (ln)” value turned out to be 9.6.

On to “ACTTTTTTAATGTTACGTACACATAAATAATAATTA [XGTACX_site8092]”, for which the “gcPBM binding intensity (ln)” value was determined as 9.23.

In the case of “TTTCACAAATGATATAGTACTTTTTATTATTAACAT [XGTACX_site7976]”, the “gcPBM binding intensity (ln)” value was 9.17. Turning to “GTTATTAAAAACGGGTGTACACATATATAAATATAT [XGTACX_site1234]”, the “gcPBM binding intensity (ln)” value was found to be 9.38. In the case of “TATTTATTATAAAAATTGTATAAAATAATAATGCTC [GTGCAC_negctrl_site456]”, the “gcPBM binding intensity (ln)” value came to 9.18. In the case of “AAATTGGGGCTTGTTACACACTTAGTGTGAGTTCTA [CACACA_site6417]”, the “gcPBM binding intensity (ln)” value worked out at 9.53. Consider “ATTTATAATATGTATACACACACATATATAAATATA [CACACA_site8729]”, for which the “gcPBM binding intensity (ln)” value stood at 9.59. In the case of “TTCTCATCCTTACATACACACACATATATATATATA [CACACA_site7914]”, the “gcPBM binding intensity (ln)” value was determined as 9.98. In the case of “TATAATCATAAATACACACACATATATATATATATA [CACACA_site5224]”, the “gcPBM binding intensity (ln)” value is 9.54. For “GTTCAATTATTTTTATGTACATATATTTTTTTCTTT [XGTACX_site2505]”, the “gcPBM binding intensity (ln)” value came to 9.66.

As for “TATACATAGATATATACACACATATATTTATATACA [CACACA_site6328]”, the “gcPBM binding intensity (ln)” value amounted to 9.55.

In the case of “ATTACAAAAAAAAAAAAAAAAAAAAAAAAAAAAAAA [CACACA_negctrl_site448]”, the “gcPBM binding intensity (ln)” value worked out at 8.6. Turning to “ATATGTATATATATTTGTACGTAAAATGAAATCTAA [XGTACX_site213]”, the “gcPBM binding intensity (ln)” value is 9.28.

On to “ATTTCACAGAAACACACACACAATATATTTCCTTTT [CACACA_site3904]”, for which the “gcPBM binding intensity (ln)” value was 9.87. As to “GAAAAATGAAGAGAACAAAATTTTATGATATATATA [GTGCAC_negctrl_site231]”, the “gcPBM binding intensity (ln)” value was determined as 9.19.

Take “CCTTGAACCCCACTAACACACACACCCACGCTCAGA [CACACA_site8976]”: the “gcPBM binding intensity (ln)” value was 9.84. Regarding “TTTCATAAATAAATATGTACATAATTAATAATAAAT [XGTACX_site5882]”, the “gcPBM binding intensity (ln)” value came to 9.07. Regarding “AAGAAAATTAAATTAACACACATAAATATGTAAATA [CACACA_site6882]”, the “gcPBM binding intensity (ln)” value was 9.42. On to “CCAATAATATATAGAAGTACAGAAAAAAAAAAAAAA [XGTACX_site2049]”, for which the “gcPBM binding intensity (ln)” value is 9.07. Consider “CCCTCTTCTCTCATATCACACATGTCATCCTTATCC [CACACA_site5078]”, for which the “gcPBM binding intensity (ln)” value was determined as 9.55.

With “GCACGCTGTATGAATGCACACATTCATAGAATTGCT [CACACA_site8852]”, the “gcPBM binding intensity (ln)” value worked out at 9.22.

In the case of “ATCAAAATGTTAAAGATACACACCTAACAAACACAA [CACACA_site955]”, the “gcPBM binding intensity (ln)” value came out at 9.7. With “TTATATATATAGAAGTGTACAAAATTTCCTAGACCT [XGTACX_site3900]”, the “gcPBM binding intensity (ln)” value worked out at 9.39. Take “TATAAATATTTATAAACACACAAATATATATATTTA [CACACA_site27]”: the “gcPBM binding intensity (ln)” value is 9.35. Turning to “TATCGACATTTCATTTGTACATATATACATATATTT [XGTACX_site3346]”, the “gcPBM binding intensity (ln)” value came out at 9.4. Regarding “AAATAGTATATAATATGTACATACATAAAAATGTAT [XGTACX_site3524]”, the “gcPBM binding intensity (ln)” value turned out to be 9.2. On to “ACCTATGTATATTATACACACTCCAAACTATTATTT [CACACA_site1817]”, for which the “gcPBM binding intensity (ln)” value stood at 9.63.

For the sequence “AAAGGTAAGCAGAATAGTACAGAAGAAAAAATATTT [XGTACX_site2941]”, the “gcPBM binding intensity (ln)” value is 9.61.

For “TTTTGTTTGTTCGTGACTACATTATGTTGTAAATAC [CACACA_negctrl_site604]”, the “gcPBM binding intensity (ln)” value was determined as 9.3. With “CAACATTTGAGACACACACACATACAAACAAACAAA [CACACA_site7538]”, the “gcPBM binding intensity (ln)” value was 10. As for “ATCAAAAAAAAAAAATTTTTTTTTTTGTTTGTTTCC [CACACA_negctrl_site1042]”, the figure is 8.99.

The values above are taken from the supplement of paper PMC11417369.
